{"source": "the supplement of paper PMC10126150", "note": "Sequences with one replicate were seen in a single cluster, so their values are uncertain.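 Further: ATP exposure 15 min at 22 °C before imaging.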"}
{"system": "ATP", "test": "switch fluorescence ratio, 500 uM ATP over buffer (Cy3 cluster intensity, sum of 5 cycles each) (fold (ratio)); higher = stronger signal-on switching upon ATP binding; sequences stand for … in TCGTCGGCAGCGTCAGATGTGTATAAGAGACAGTTTTTTTTTTTTTTTTTTTTTTTTT…TC", "conditions": "aptamer strand: ATP DNA aptamer (quencher-CACCTGGGGGAGTATTGCGGAGGAAGG + anchor), 100 nM annealed; ATP concentration: 500 uM; one replicate", "outline": "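Between each of five buffer/ATP cycles, the flow-cell was stripped with NaOH and re-annealed. Each cycle imaged Cy3-labelled switching-strand clusters, annealed to 100 nM quencher-labelled ATP aptamer on a modified Illumina MiSeq flow-cell, first in selection buffer and then after 15 min with 500 uM ATP at 22 °C. The fluorescence ratio is summed target-cycle over summed buffer-cycle Cy3 intensity per cluster, averaged per switch-domain sequence, with clusters outside 100-1000 RFU excluded.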"}
{"sequence": "GCCCTGTCGT", "switch fluorescence ratio": 1.01}
{"sequence": "GCCCTTTTGC", "switch fluorescence ratio": 1}
{"sequence": "GCCGAAAACG", "switch fluorescence ratio": 0.969}
{"sequence": "GCCGAACATG", "switch fluorescence ratio": 1.05}
{"sequence": "GCCGAACGAG", "switch fluorescence ratio": 1.09}
{"sequence": "GCCGAAGACA", "switch fluorescence ratio": 1}
{"sequence": "GCCGAAGGCT", "switch fluorescence ratio": 1}
{"sequence": "GCCGACCAAA", "switch fluorescence ratio": 1.16}
{"sequence": "GCCGAGGCGG", "switch fluorescence ratio": 1.01}
{"sequence": "GCCGAGTCGT", "switch fluorescence ratio": 1.03}
{"sequence": "GCCGATTGTT", "switch fluorescence ratio": 0.975}
{"sequence": "GCCGCAGCGT", "switch fluorescence ratio": 1.3}
{"sequence": "GCCGCGCCTG", "switch fluorescence ratio": 1.02}
{"sequence": "GCCGCGTCCT", "switch fluorescence ratio": 1.02}
{"sequence": "GCCGCGTTCC", "switch fluorescence ratio": 1.21}
{"sequence": "GCCGCTTTGG", "switch fluorescence ratio": 0.981}
{"sequence": "GCCGGAGGGT", "switch fluorescence ratio": 1.04}
{"sequence": "GCCGTAATCG", "switch fluorescence ratio": 1.01}
{"sequence": "GCCGTAGTTA", "switch fluorescence ratio": 0.991}
{"sequence": "GCCGTATCGT", "switch fluorescence ratio": 0.945}
{"sequence": "GCCGTCATTA", "switch fluorescence ratio": 1.01}
{"sequence": "GCCGTCTACA", "switch fluorescence ratio": 0.988}
{"sequence": "GCCGTGAGCC", "switch fluorescence ratio": 1.07}
{"sequence": "GCCGTGCCAG", "switch fluorescence ratio": 1.03}
{"sequence": "GCCGTTAGAC", "switch fluorescence ratio": 1.24}
{"sequence": "GCCGTTCGC", "switch fluorescence ratio": 1.15}
{"sequence": "GCCTAAAATC", "switch fluorescence ratio": 1.06}
{"sequence": "GCCTAAGACT", "switch fluorescence ratio": 1.03}
{"sequence": "GCCTAAGCTG", "switch fluorescence ratio": 1.01}
{"sequence": "GCCTACAACG", "switch fluorescence ratio": 0.984}
{"sequence": "GCCTACGTGA", "switch fluorescence ratio": 2.68}
{"sequence": "GCCTAGACTG", "switch fluorescence ratio": 0.853}
{"sequence": "GCCTAGGAGA", "switch fluorescence ratio": 1.04}
{"sequence": "GCCTAGGGCT", "switch fluorescence ratio": 0.959}
{"sequence": "GCCTAGGGTA", "switch fluorescence ratio": 0.981}
{"sequence": "GCCTATATGC", "switch fluorescence ratio": 1.02}
{"sequence": "GCCTATCACA", "switch fluorescence ratio": 0.997}
{"sequence": "GCCTATTGTC", "switch fluorescence ratio": 0.952}
{"sequence": "GCCTCAGAGT", "switch fluorescence ratio": 1.02}
{"sequence": "GCCTCCCATT", "switch fluorescence ratio": 1.95}
{"sequence": "GCCTCCGGAT", "switch fluorescence ratio": 2.28}
{"sequence": "GCCTCCGTAT", "switch fluorescence ratio": 3.75}
{"sequence": "GCCTCCTGGC", "switch fluorescence ratio": 1.02}
{"sequence": "GCCTCGAATA", "switch fluorescence ratio": 1.14}
{"sequence": "GCCTGAGGAC", "switch fluorescence ratio": 1.04}
{"sequence": "GCCTGAGTTC", "switch fluorescence ratio": 1.04}
{"sequence": "GCCTGCAAGC", "switch fluorescence ratio": 1.25}
{"sequence": "GCCTTACATA", "switch fluorescence ratio": 1.07}
{"sequence": "GCCTTACGTA", "switch fluorescence ratio": 1.15}
{"sequence": "GCCTTATTGA", "switch fluorescence ratio": 1.03}
{"sequence": "GCCTTCAACG", "switch fluorescence ratio": 1.67}
{"sequence": "GCCTTCAGTT", "switch fluorescence ratio": 0.997}
{"sequence": "GCCTTCCCTC", "switch fluorescence ratio": 2.33}
{"sequence": "GCCTTGC", "switch fluorescence ratio": 1.23}
{"sequence": "GCCTTGCTTA", "switch fluorescence ratio": 0.97}
{"sequence": "GCCTTGCTTG", "switch fluorescence ratio": 1.04}
{"sequence": "GCCTTTGCCT", "switch fluorescence ratio": 0.991}
{"sequence": "GCGAACAATT", "switch fluorescence ratio": 1.01}
{"sequence": "GCGAACCATG", "switch fluorescence ratio": 1.01}
{"sequence": "GCGAACGTCG", "switch fluorescence ratio": 1.01}
{"sequence": "GCGACAAGGT", "switch fluorescence ratio": 1.04}
{"sequence": "GCGACGGATT", "switch fluorescence ratio": 1.18}
{"sequence": "GCGACTCCCT", "switch fluorescence ratio": 1.99}
{"sequence": "GCGACTGGGT", "switch fluorescence ratio": 0.962}
{"sequence": "GCGAGAGCCG", "switch fluorescence ratio": 0.937}
{"sequence": "GCGAGATAGC", "switch fluorescence ratio": 0.995}
{"sequence": "GCGAGCCTGT", "switch fluorescence ratio": 1}
{"sequence": "GCGAGCGCGT", "switch fluorescence ratio": 0.99}
{"sequence": "GCGAGCTATC", "switch fluorescence ratio": 1.24}
{"sequence": "GCGAGGCACG", "switch fluorescence ratio": 1.1}
{"sequence": "GCGAGGTGGA", "switch fluorescence ratio": 1.01}
{"sequence": "GCGAGGTTAG", "switch fluorescence ratio": 1}
{"sequence": "GCGAGTCAGG", "switch fluorescence ratio": 1.06}
{"sequence": "GCGAGTGGGG", "switch fluorescence ratio": 1.04}
{"sequence": "GCGATAAG", "switch fluorescence ratio": 1.08}
{"sequence": "GCGATACCCG", "switch fluorescence ratio": 1.31}
{"sequence": "GCGATACGTT", "switch fluorescence ratio": 1.87}
{"sequence": "GCGATCTTCC", "switch fluorescence ratio": 2.43}
{"sequence": "GCGATCTTGT", "switch fluorescence ratio": 0.964}
{"sequence": "GCGATGCTGA", "switch fluorescence ratio": 1.07}
{"sequence": "GCGATGGTA", "switch fluorescence ratio": 0.97}
{"sequence": "GCGCAAAATC", "switch fluorescence ratio": 2.34}
{"sequence": "GCGCAACCG", "switch fluorescence ratio": 1.05}
{"sequence": "GCGCAAGTT", "switch fluorescence ratio": 1.06}
{"sequence": "GCGCAGTTTG", "switch fluorescence ratio": 1.02}
{"sequence": "GCGCATAGGC", "switch fluorescence ratio": 1.64}
{"sequence": "GCGCATGCGC", "switch fluorescence ratio": 0.974}
{"sequence": "GCGCATGTG", "switch fluorescence ratio": 0.982}
{"sequence": "GCGCATTAGT", "switch fluorescence ratio": 1.27}
{"sequence": "GCGCCAGCGC", "switch fluorescence ratio": 1.01}
{"sequence": "GCGCCGATGG", "switch fluorescence ratio": 0.957}
{"sequence": "GCGCCTAACT", "switch fluorescence ratio": 1.04}
{"sequence": "GCGCGCAGGT", "switch fluorescence ratio": 1.01}
{"sequence": "GCGCGCATGA", "switch fluorescence ratio": 0.983}
{"sequence": "GCGCGCTTAT", "switch fluorescence ratio": 1.01}
{"sequence": "GCGCTATGGA", "switch fluorescence ratio": 1.07}
{"sequence": "GCGCTGACCT", "switch fluorescence ratio": 1.16}
{"sequence": "GCGCTTCTGA", "switch fluorescence ratio": 1.04}
{"sequence": "GCGGAAAGAG", "switch fluorescence ratio": 0.983}
{"sequence": "GCGGAAGATT", "switch fluorescence ratio": 1.02}
{"sequence": "GCGGAGCCAA", "switch fluorescence ratio": 1.21}
